# PubChem BioAssay AID1508642 (National Center for Advancing Translational Sciences (NCATS), 2021)
# In all, about 43,000 compounds went through this assay and about 200 (0.47%) were called active. About 12% were inconclusive and are not listed. Calls follow the shape of the dose curve; as a rule, active = well fitted cell-killing curve with a large enough effect; inconclusive = small, poorly fitted or top-dose-only effect, or effect the other way; inactive = flat fitted curve, though single readings scatter. Some of the results follow.
# Assay: Cell viability qHTS assay in S16 Pmp22-F2sN cells; also: nearly all actives have a fitted effect of over 65% in size
# Conditions: S16 Pmp22-F2sN Schwann cells (luciferase reporters placed in the Pmp22 gene) viability, CellTiter-Glo, 24 h; series mostly up to 57.5 µM; activity change, negative = cytotoxicity: at the top concentration
# In short: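 CellTiter-Glo counter-screen, qHTS, 1536-well. Cells: S16(c9) Pmp22-F2sN, 500-1,000/well in DMEM + 10% FBS. Cpd 23 nL pin transfer, 24 h, 37C/5% CO2. Read: luminescence, CCD imager.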
# % is scaled to controls: 0 for no effect and ±100 for the full control effect.
row,Compound,"activity change, negative = cytotoxicity"
1,Cc1ccc(-c2nsc(NC(=O)c3oc4cc(C)c(Cl)cc4c3C)n2)cc1,inactive: -0.844%
2,Cc1ccccc1C(=O)NCc1ccc2c(c1)CCN2C(=O)c1ccccc1,inactive: 0.879%
3,CCn1c(=O)c2sccc2n2c(CCCC(=O)N3CCN(c4ccccc4OC)CC3)nnc12,inactive: 9.11%
4,CCOC(=O)N1CCC(NC(=O)c2cnn(-c3cccc(C)c3)c2C2CCN(C(=O)OC(C)(C)C)CC2)CC1,inactive: 10.4%
5,CC(=O)c1cc(-c2ccc(F)cc2)n(CCC(=O)NCc2ccc(C)cc2)c1C,inactive: -1.64%
6,CC(=O)c1ccc(N2CCN(C(=O)Cn3ncc4c3-c3ccccc3OC4)CC2)cc1,inactive: -1.48%
7,CCOc1ccc(NC(=O)c2cnn3c(C(F)F)cc(-c4ccc(C)cc4)nc23)cc1,inactive: 23.3%
8,Cc1c(Cl)cccc1NC(=O)CN1C(=O)CSc2ccc(S(=O)(=O)N3CCCC3)cc21,inactive: -17.6%
9,O=c1cc(COc2cccc(C(F)(F)F)c2)nc2sc3c(n12)CCCC3,inactive: 9.83%
10,Cc1ccc(-n2ncc(C(=O)N3CCN(C4CCCCC4)CC3)c2C2CCN(C(=O)OC(C)(C)C)CC2)cc1,inactive: 3.84%
11,CCc1ccc(Sc2cc(C(=O)NCCCN3CCCC(C)C3)c3ccccc3n2)cc1 (stereo unspecified),inactive: -6.83%
12,Cc1ccccc1CCNCc1c(C(=O)O)c(C)n(Cc2c(F)cccc2Cl)c1C,inactive: -18%
13,CCCCCCNc1ncnc2c1sc1nc(N3CCOCC3)c3c(c12)CCCC3,inactive: 2.92%
14,COc1ccc(NC(=O)Cn2c(=O)n(CC3CCCO3)c(=O)c3ccccc32)cc1 (stereo unspecified),inactive: 10.5%
15,CCCCSCCCNC(=O)c1cc(-c2cccnc2)nc2ccc(S(=O)(=O)N3CCC(C)CC3)cc12,inactive: -7.17%
16,O=C(Nc1ccc(Oc2ccccc2)cc1)C1CCN(S(=O)(=O)c2ccccc2)CC1,inactive: -1.05%
17,Cc1oc2ccc(O)c(CN3CCN(Cc4ccccc4)CC3)c2c1C(=O)Nc1cccc(Cl)c1C,inactive: 22.3%
18,CCCN(C(=O)c1nn(-c2ccc(C)cc2)c(=O)c2c1c1ccccc1n2C)c1ccccc1C,inactive: -4.89%
19,COc1ccc(Cl)cc1NC(=O)c1nc(S(C)(=O)=O)ncc1N(Cc1ccc(C)cc1)Cc1ccco1,inactive: 1.67%
20,Cc1cc2oc(C(=O)Nc3ccc(S(=O)(=O)Nc4onc(C)c4C)cc3)cc(=O)c2cc1C,inactive: -6.62%
21,Cc1ccc(C)c(NC(=O)Cn2c(=O)oc3cc(S(=O)(=O)NCc4ccccc4)ccc32)c1,inactive: -7.58%

row,Compound,"activity change, negative = cytotoxicity"
1,Cc1cccc(CNC(=O)c2ccc(Cn3c(SCc4ccccc4)nc4cccnc43)cc2)c1,inactive: -9.32%
2,CCc1ccc2oc(C(=O)Nc3nc(-c4ccccc4)ns3)c(C)c2c1,inactive: -0.502%
3,Cc1c(C(=O)N(C)C)sc2c1c(=O)n(-c1ccc(F)cc1)c(=O)n2CC(=O)N(C)c1ccccc1,inactive: 9.81%
4,COc1ccccc1CNC(=O)CCC1N=C2c3ccccc3N=C(SCC(=O)NCCc3ccccc3)N2C1=O (stereo unspecified),inactive: 0.0328%
5,Cc1ccccc1C(=O)Nc1sc2c(c1C(=O)N1CCC(C)CC1)CCCC2,inactive: 7.6%
6,CCOC(=O)c1c(NC(=O)/C=C/c2ccc(OC)cc2)sc2c1CCC(C)C2 (stereo unspecified),inactive: 2.92%
7,O=C(CSc1nc(=O)[nH]c2c1CCCC2)NCc1ccc(Cl)cc1,inactive: 3.92%
8,Cc1cc2n(n1)CCCN2C(=O)Nc1cccc(C)c1C,inactive: 4.84%
9,Cc1cccc(Nc2nc3ccccc3n3c(N)nnc23)c1,inactive: 0.193%
10,COc1cccc(N2CCN(c3ncc4c(n3)CCN(Cc3ccc(Br)cc3)C4)CC2)c1,inactive: -1.56%
11,Cc1ccc(Cn2c(=O)c3cccnc3n(Cc3ccc(F)cc3)c2=O)cc1,inactive: -1.53%
12,CCOC(=O)c1c(NC(=O)c2cc3ccccc3c(=O)o2)sc2c1CCCC2,inactive: 1.2%
13,COc1ccc(OC)c(NC(=O)CCc2c(C)nc3c(-c4ccccc4)c(C)nn3c2C)c1,inactive: -16.9%
14,CCSC1=NC2(CCN(C(=O)NC3CCCCC3)CC2)N=C1c1ccc(C)c(C)c1,inactive: -16.5%
15,Cc1noc(C)c1S(=O)(=O)NCCc1csc2nc(-c3ccc(F)cc3)nn12,inactive: -11.1%
16,Cc1ccc(NC(=O)[C@H](Cc2ccccc2)N2Cc3ccccc3C2=O)cc1,inactive: -15.8%
17,Cc1ccc(S(=O)(=O)c2cn(CC(=O)Nc3ccc4c(c3)OCO4)c3ccc(F)cc3c2=O)cc1,inactive: -3.45%
18,Cc1cccc(CSCCNC(=O)CN(c2ccccc2)S(=O)(=O)N(C)C)c1,inactive: 3.71%
19,CCOc1ccc(CC(=O)NC2CC(=O)N(c3ccc4c(c3)OCCO4)C2)cc1 (stereo unspecified),inactive: 1.9%
20,CCN(c1ccccc1)S(=O)(=O)c1nnc(NC(=O)COc2ccccc2F)s1,inactive: -3.52%
21,CC(=O)Nc1ccccc1-c1nc2ccccc2n(C(C)C(=O)c2ccc(C)c(C)c2)c1=O (stereo unspecified),inactive: 5.83%

row,Compound,"activity change, negative = cytotoxicity"
1,CC(=O)Nc1ccc(S(=O)(=O)Nc2ccc3c(c2)n(C)c(=O)n3C)c(C)c1,inactive: -10.3%
2,Cc1cc(C)n(-c2nc3cc(Cl)c(Cl)cc3nc2Nc2c(C)cccc2C)n1,inactive: 2%
3,COc1ccc(CNC(=O)C(=O)NCC(c2cccnc2)N2CCN(c3ccccc3F)CC2)cc1 (stereo unspecified),inactive: -27.9%
4,Cc1ccc(Nc2cc(-c3ccccc3)nc(C)n2)cc1,inactive: 0.306%
5,COc1ccc(-c2[nH]ncc2C(=O)NCc2ccccc2OC)cc1,inactive: 9.35%
6,Cc1ccc(NC(=O)CN(C)S(=O)(=O)c2cccc3nsnc23)c(C)c1,inactive: -16.8%
7,Cc1ccc(C)c(NC(=O)Cn2cnc3nc4c(cc3c2=O)CCCC4)c1,inactive: -10.8%
8,CCOC(=O)c1cccc(NC(=O)c2ccc3snnc3c2)c1,inactive: -2.42%
9,COc1ccccc1C(=O)Nc1nc(-c2ccc(Br)cc2)ns1,inactive: -3.26%
10,Cc1nc2ccn(Cc3cccnc3)c(=O)c2cc1C(=O)N1CCN(c2ccccc2)CC1,inactive: 12.5%
11,CCc1ccc(-n2c(N3CCN(c4cccc(C)c4C)CC3)nc3ccccc3c2=O)cc1,inactive: 11.1%
12,COCCNC(=O)CSc1nnc(NC(=O)Nc2ccc(C)cc2)s1,inactive: 6.27%
13,Cc1ccc(Nc2nc(N)nc(N)c2S(=O)(=O)c2ccccc2)cc1,inactive: 12.5%
14,COC(=O)c1sccc1S(=O)(=O)N(CC(=O)NCc1ccccc1)c1ccc(C)cc1,inactive: 22.3%
15,Cc1cc(C)cc(NC(=O)Nc2cccs2)c1,inactive: 4.5%
16,CCOC(=O)CN1C(C(=O)c2ccccc2)=C(OC(=O)c2ccccc2)c2ccccc2S1(=O)=O,inactive: -6.01%
17,Cc1ccc(NC(=O)C2CCCN(S(=O)(=O)c3ccc(F)cc3)C2)cc1 (stereo unspecified),inactive: -1.75%
18,CCCCOc1ccc(C(=O)Nc2onc3c2CCCC3)cc1,inactive: -4.81%
19,COC(=O)C1CCN(C(c2ccccc2Cl)c2sc3nc(-c4ccco4)nn3c2O)CC1 (stereo unspecified),inactive: 9.49%
